# Results as given in the supplement of paper PMC8728848.
# This is one part of the list.
# Key:
# Experiment in all cases: glycan array binding signal (z-score within array); higher = stronger binding
# Conditions in all cases: glycan notation: IUPAC condensed, linker removed
# [1] = target: Man(a1-2)Man(a1-3)[Man(a1-2)Man(a1-6)]Man(a1-6)[Man(a1-2)Man(a1-2)Man(a1-3)]Man
# How it was run: (§1)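 The binding signal is a Z-score computed within each array and averaged over linkers. Arrays of the same protein sequence at different concentrations or buffers were also averaged together. Data originate from 3228 arrays in the Consortium for Functional Glycomics database, kept only where the protein sequence was available.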
# [2] = target: Man(a1-2)Man(a1-3)[Man(a1-2)Man(a1-6)]Man(a1-6)[Man(a1-2)Man(a1-2)Man(a1-3)]Man(b1-4)GlcNAc(b1-4)GlcNAc
# How it was run: as §1
# [3] = target: Man(a1-2)Man(a1-3)[Man(a1-6)]Man(a1-6)[Man(a1-2)Man(a1-3)]Man(b1-4)GlcNAc(b1-4)GlcNAc
# How it was run: as §1
# [4] = target: Man(a1-2)Man(a1-6)[Man(a1-3)]Man(a1-6)[Man(a1-2)Man(a1-2)Man(a1-3)]Man
# How it was run: as §1
# [5] = target: Man(a1-2)Man(a1-6)[Man(a1-3)]Man(a1-6)[Man(a1-2)Man(a1-2)Man(a1-3)]Man(b1-4)GlcNAc(b1-4)GlcNAc
# How it was run: as §1
# [6] = target: Man(a1-3)[Man(a1-6)]Man
# How it was run: as §1
# [7] = target: Man(a1-3)[Man(a1-6)]Man(a1-6)[Man(a1-2)Man(a1-3)]Man(b1-4)GlcNAc(b1-4)GlcNAc
# How it was run: as §1
# [8] = target: Man(a1-3)[Man(a1-6)]Man(a1-6)[Man(a1-3)]Man
# How it was run: as §1
# [9] = target: Man(a1-3)[Man(a1-6)]Man(a1-6)[Man(a1-3)]Man(b1-4)GlcNAc(b1-4)GlcNAc
# How it was run: as §1
# [10] = target: Man(a1-3)[Man(a1-6)]Man(b1-4)GlcNAc(b1-4)GlcNAc
# How it was run: as §1
# [11] = target: Man(a1-3)[Man(a1-6)]Man(b1-4)GlcNAc(b1-4)[Fuc(a1-6)]GlcNAc
# How it was run: as §1
# [12] = target: Man(a1-6)Man
# How it was run: as §1
# [13] = target: Man(b1-4)GlcNAc
# How it was run: as §1
# [14] = target: MurNAc(b1-4)GlcNAc
# How it was run: as §1
# [15] = target: Neu5Ac(a2-3)Gal
# How it was run: as §1
# [16] = target: Neu5Ac(a2-3)Gal(b1-3)GalNAc
# How it was run: as §1
# [17] = target: Neu5Ac(a2-3)Gal(b1-3)GalNAc(b1-3)Gal(a1-4)Gal(b1-4)Glc
# How it was run: as §1
# [18] = target: Neu5Ac(a2-3)Gal(b1-3)GalNAc(b1-4)Gal(b1-4)Glc
# How it was run: as §1
# [19] = target: Neu5Ac(a2-3)Gal(b1-3)GalNAc(b1-4)[Neu5Ac(a2-3)]Gal(b1-4)Glc
# How it was run: as §1
# [20] = target: Neu5Ac(a2-3)Gal(b1-3)GalNAc(b1-4)[Neu5Ac(a2-8)Neu5Ac(a2-3)]Gal(b1-4)Glc
# How it was run: as §1
# [21] = target: Neu5Ac(a2-3)Gal(b1-3)GalNAc6S
# How it was run: as §1
# [22] = target: Neu5Ac(a2-3)Gal(b1-3)GlcNAc
# How it was run: as §1
# [23] = target: Neu5Ac(a2-3)Gal(b1-3)GlcNAc(b1-2)Man
# How it was run: as §1
# [24] = target: Neu5Ac(a2-3)Gal(b1-3)GlcNAc(b1-2)Man(a1-3)[GlcNAc(b1-4)][Neu5Ac(a2-3)Gal(b1-3)GlcNAc(b1-2)Man(a1-6)]Man(b1-4)GlcNAc(b1-4)GlcNAc
# How it was run: as §1
# [25] = target: Neu5Ac(a2-3)Gal(b1-3)GlcNAc(b1-2)Man(a1-3)[Neu5Ac(a2-3)Gal(b1-3)GlcNAc(b1-2)Man(a1-6)]Man(b1-4)GlcNAc(b1-4)GlcNAc
# How it was run: as §1
# [26] = target: Neu5Ac(a2-3)Gal(b1-3)GlcNAc(b1-2)[Neu5Ac(a2-3)Gal(b1-3)GlcNAc(b1-4)]Man(a1-6)[Neu5Ac(a2-3)Gal(b1-3)GlcNAc(b1-2)Man(a1-3)]Man(b1-4)GlcNAc(b1-4)GlcNAc
# How it was run: as §1
# [27] = target: Neu5Ac(a2-3)Gal(b1-3)GlcNAc(b1-3)Gal(b1-3)GlcNAc
# How it was run: as §1
# [28] = target: Neu5Ac(a2-3)Gal(b1-3)GlcNAc(b1-3)Gal(b1-4)GlcNAc
# How it was run: as §1
# [29] = target: Neu5Ac(a2-3)Gal(b1-3)GlcNAc(b1-3)GalNAc
# How it was run: as §1
# [30] = target: Neu5Ac(a2-3)Gal(b1-3)GlcNAc(b1-6)GalNAc
# How it was run: as §1
binder,measurement,setting,value
SialidaseA (Arthrobacter ureafaciens) (protein) MRSNSTSAPSLVRRAATGVLTCAVSIGLLAGLGLPAQAAPTPPNSPTLPPGSFSETNLAADRTAANFFYRIPALTYLGNDVVLAAWDGRPGSAADAPNPNSIVQRRSTDGGKTWGPVQVIAAGHVADASGPRYGYSDPSYIYDAEANKVFAFFVYSKDQGFGGSQFGNDDADRNVISSAVIESSDAGVTWSQPRLITSVTKPGTSKTNPAAGDVRSNFASSGEGIQLKYGPHKGRLIQQYAGDVRQADGSNKIQAYSVYSDDHGVTWHKGANVGDRMDENKTVELSDGRVLLNSRDNANRGYRKVAVSTDGGATYGPVSQDTELPDPANNGAIARMFPNAAQGSADAKKLIFTNANSKTGRENVSARVSCDDGETWPGVRTIRSGFSAYSTVTRLADGKFGVLYEGNYTDNMPFATFDDAWLNYVCAPLAVPAVNIAPSATQEVPVTVTNQEATTLSGATATVYTPSGWSATTVPVPDVAPGASVTVTVALTAPADASGPRSLNAAFTTADGRVSQFTFTATTPVAPQVGLTITGSAPARDVAANPYQAGDVLGYTLNVKSTANVAANSVPLTGTFDSGFLPPAAPNCRYNNLAAGASYNCTTAKHTITAADMERGYFVPEATFSITSTTTPSLTKTVQFTGAAVALRDGLISADISGARTDVGRDLATRPYAAGELVPYAFTVKNTSPFVEQVVPTAGNFSPFLPAGAGNCRYLSLPAGQSYECATPRHAVTAEEVEQGFFVPDTTWEVSAAGQSTRTYRINGGEVDLLVRDAALSATVVAEWKDADGDRFASAGDPVTFTYTVGNAGNVALTGLEAPDAGISLPFLAPGDTATATREHVLTAADVAGGSLAASAFEATARNGSKEVTATAEGQPLELKVQPAQPSKEPELTVQDLEDQTPPFDLGTAFKYRTGQKVSLAGLEYGQWYYVYLNKTGYRLGWMFPTTGDTVEFILPPEVRNGRDDVVVLDKDGRRVSFDRLQVTPKGEKI,glycan array binding signal (z-score),[1],0.656
same,glycan array binding signal (z-score),[2],-0.441
same,glycan array binding signal (z-score),[3],-0.321
same,glycan array binding signal (z-score),[4],-0.478
same,glycan array binding signal (z-score),[5],-0.567
same,glycan array binding signal (z-score),[6],-0.571
same,glycan array binding signal (z-score),[7],-0.172
same,glycan array binding signal (z-score),[8],-0.588
same,glycan array binding signal (z-score),[9],-0.278
same,glycan array binding signal (z-score),[10],-0.377
same,glycan array binding signal (z-score),[11],-0.23
same,glycan array binding signal (z-score),[12],-0.662
same,glycan array binding signal (z-score),[13],-0.628
same,glycan array binding signal (z-score),[14],-0.657
same,glycan array binding signal (z-score),[15],-0.506
same,glycan array binding signal (z-score),[16],1.29
same,glycan array binding signal (z-score),[17],0.952
same,glycan array binding signal (z-score),[18],-0.932
same,glycan array binding signal (z-score),[19],2.77
same,glycan array binding signal (z-score),[20],-0.764
same,glycan array binding signal (z-score),[21],0.854
same,glycan array binding signal (z-score),[22],1.16
same,glycan array binding signal (z-score),[23],0.572
same,glycan array binding signal (z-score),[24],-0.555
same,glycan array binding signal (z-score),[25],-0.121
same,glycan array binding signal (z-score),[26],1.14
same,glycan array binding signal (z-score),[27],0.542
same,glycan array binding signal (z-score),[28],1.07
same,glycan array binding signal (z-score),[29],-0.321
same,glycan array binding signal (z-score),[30],1.48
